Measurements reported in PMC4336329 (PLoS ONE, 2015).
Among all 310,000 compounds or so, about 2,200 (0.71%) showed an effect of 50% or more. The effect is printed as a negative number. The list shows a part of the results.

target: human ether-à-go-go-related gene (hERG) potassium channel (human, UniProt Q12809); assay: primary screen, population patch clamp on CHO cells stably expressing hERG
Sequence (Q12809 whole entry, looked up): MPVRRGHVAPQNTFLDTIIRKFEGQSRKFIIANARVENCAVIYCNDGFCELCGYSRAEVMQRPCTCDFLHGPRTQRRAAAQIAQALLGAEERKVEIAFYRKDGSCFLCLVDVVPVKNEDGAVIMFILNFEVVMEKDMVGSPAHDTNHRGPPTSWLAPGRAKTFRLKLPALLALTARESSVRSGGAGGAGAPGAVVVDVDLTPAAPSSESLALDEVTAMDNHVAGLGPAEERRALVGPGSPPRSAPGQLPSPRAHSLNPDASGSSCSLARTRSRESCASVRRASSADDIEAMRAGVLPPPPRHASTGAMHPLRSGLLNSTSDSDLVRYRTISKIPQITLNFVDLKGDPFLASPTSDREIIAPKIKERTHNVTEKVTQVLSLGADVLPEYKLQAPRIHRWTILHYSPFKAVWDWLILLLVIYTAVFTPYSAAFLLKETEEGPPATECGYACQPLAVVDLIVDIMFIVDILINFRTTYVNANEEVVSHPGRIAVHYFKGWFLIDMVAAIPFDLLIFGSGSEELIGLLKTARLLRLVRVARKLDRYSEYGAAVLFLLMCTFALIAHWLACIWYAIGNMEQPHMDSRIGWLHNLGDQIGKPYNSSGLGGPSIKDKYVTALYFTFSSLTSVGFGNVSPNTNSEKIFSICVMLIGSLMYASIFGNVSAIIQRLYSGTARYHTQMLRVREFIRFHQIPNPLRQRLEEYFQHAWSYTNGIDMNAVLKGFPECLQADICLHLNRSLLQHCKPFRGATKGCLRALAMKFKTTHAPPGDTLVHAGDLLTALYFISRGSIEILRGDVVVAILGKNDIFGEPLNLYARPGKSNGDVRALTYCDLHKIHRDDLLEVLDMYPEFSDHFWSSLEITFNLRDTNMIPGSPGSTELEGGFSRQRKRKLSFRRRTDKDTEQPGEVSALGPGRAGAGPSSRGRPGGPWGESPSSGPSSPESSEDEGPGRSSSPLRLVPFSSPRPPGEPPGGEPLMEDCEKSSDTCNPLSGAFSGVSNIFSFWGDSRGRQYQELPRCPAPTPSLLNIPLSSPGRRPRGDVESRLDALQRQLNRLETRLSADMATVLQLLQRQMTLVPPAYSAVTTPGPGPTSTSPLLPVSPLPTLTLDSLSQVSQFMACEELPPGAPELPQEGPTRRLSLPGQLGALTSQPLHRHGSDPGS

| SMILES | hERG current change (%, negative = inhibition) at 1uM [%] |
| --- | --- |
| CC(C)COc1ccc(C(=O)N(CC(=O)Nc2ccccc2C(F)(F)F)Cc2ccco2)cc1 | -4.53 |
| O=C1[C@@H]2C(c3cccnc3)=NO[C@@H]2C(=O)N1c1ccc(Br)cc1 | 11.5 |
| COc1ccccc1CCN1CCCC(CN(C)C(=O)c2ccoc2)C1 (stereo not shown) | -0.324 |
| CC(NC(=O)Nc1cccc([N+](=O)[O-])c1)c1ccc2c(c1)OCO2 (stereo not shown) | 11.2 |
| COc1ccc(NC(C)=O)cc1S(=O)(=O)Nc1ccc(C(=O)N2CCCC2)cc1 | 10.1 |
| Clc1ccc(C2CC(c3cccs3)n3ncnc3N2)cc1Cl (stereo not shown) | 5.4 |
| Cc1ccc(S(=O)(=O)N(Cc2ccccc2F)C(=O)N2CCN(C)CC2)cc1 | 14 |
| CC(C)Oc1ccc(N2C(=O)c3ccccc3C2=O)cc1 | 11 |
| Cc1cc(SCC(=O)c2ccccc2)n2ncc(-c3ccccc3)c2n1 | 12.3 |
| CCOC(=O)c1c(NC(=O)C(C)Sc2cccc[n+]2[O-])sc2c1CCN(Cc1ccccc1)C2 (stereo not shown) | 1.96 |
| O=C(Nc1cc(Br)c(O)c(Br)c1)c1cccc(NC(=O)c2ccco2)c1 | 0.975 |
| Cc1nn(Cc2ccccc2Cl)c(Cl)c1C(=O)NCCc1ccccc1 | 15.1 |
| Cc1cc(C)nc(NS(=O)(=O)c2ccc(NC(=O)C3(c4ccc([N+](=O)[O-])cc4)CCCC3)cc2)n1 | 8.31 |
| CCCCCC(C)NC(=S)NC(=O)c1cc(S(=O)(=O)N2CCOCC2)ccc1C (stereo not shown) | 4.22 |
| COC(=O)c1ccc(CN2[C@H](C(=O)OC)C[C@@]3(O)[C@@H](O)[C@@H](O)[C@@H](O)C[C@@H]23)cc1 | 9.77 |
| COC(=O)c1ccccc1NC(=O)CC(=O)Nc1ccccc1C(=O)OC | 7.96 |
| COC(=O)[C@]1(C)CCC[C@@]2(C)C3CC[C@@]4(C)C[C@]3(CCC21)CC(=O)N4C (stereo partly shown) | 7.69 |
| O=C(c1cc(-c2cccnc2)nc2ccc(Cl)cc12)N1CCN(S(=O)(=O)c2cccs2)CC1 | 14.6 |
| O=C(O)CC1=C(Nc2ccccc2)C(=O)N(c2ccccc2)C1c1ccc(Cl)cc1 (stereo not shown) | 11.1 |
| Cc1c(Cl)cccc1NC(=O)CCN1CCN(CCO)CC1.Cl | 19.6 |
| O=C(Nc1cccc(C(=O)N2CCN(Cc3ccccc3)CC2)c1)c1ccccc1 | 6.98 |
| CC(Cn1cnc2ccccc21)C(=O)O (stereo not shown) | 14.2 |

| SMILES | hERG current change (%, negative = inhibition) at 1uM [%] |
| --- | --- |
| CN1CCCCCC1=NC1=C(C#N)CCCC1 | 5.1 |
| CCOC(=O)c1c(C)[nH]c(C)c1C(=O)COC(=O)c1ccc(O)cc1 | 3.94 |
| CCN(C(=O)CSc1nc2nc(C)cc(C)n2n1)c1ccccc1 | 2.61 |
| CC(C)NC(=O)NC(=O)CSc1ncc(C(F)(F)F)cc1Cl | 2.44 |
| O=C(COC(=O)/C=C/c1ccc(Cl)cc1Cl)Nc1ccc2c(c1)OCCO2 | 12.9 |
| O=C(c1ccc(Cl)cc1)C1CCN(CC(=O)N2CCCCC2)CC1 | -5.02 |
| CCC(C(=O)NC1CCCCC1)N(C(=O)c1snc(C(N)=O)c1N)c1ccc(OC)cc1OC (stereo not shown) | -2.54 |
| Cc1nn(C)c(C)c1NC(=O)c1ccccc1NC(=O)Nc1ccccc1 | 13.3 |
| Cc1cc(C)nc(SCC(CSc2nc(C)cc(C)n2)C(=O)O)n1 | 14.3 |
| CCOC(=O)C1=C(C)N(C)C(=S)NC1c1ccccc1 (stereo not shown) | 6.83 |
| Cc1noc(C)c1COc1ccc(C(=O)Nc2nnc(CC(C)C)s2)cc1 | 11.3 |
| CCCc1cc(=O)n2[nH]c(C)c(-c3ccc(Cl)cc3)c2n1 | -11.7 |
| CCCCOc1ccc(S(=O)(=O)n2c(C)nc3ccccc32)cc1 | 4.6 |
| COc1cc(NC(=O)CSc2ccc(-c3cccnc3)nn2)cc(OC)c1 | 10.8 |
| O=C(/C=C/c1ccc([N+](=O)[O-])cc1)NCCN1C(=O)S/C(=C\c2ccc(F)cc2)C1=O | 2.19 |
| O=C(O)c1ccc[n+](Cc2ccc([N+](=O)[O-])cc2)c1.[Br-] | 13.7 |
| CCc1nccn1S(=O)(=O)c1cc(C)c(OC)cc1C | 3.77 |
| O=C(NC1CCCCC1)C(c1ccc(F)cc1)N(Cc1ccco1)C(=O)c1csnn1 (stereo not shown) | 5.88 |
| CCN(Cc1ccc(OC)c(F)c1)C(=O)c1oc2ccccc2c1COC | -2.28 |
| COc1cc(C(=O)OCCn2c(=O)c3c(ncn3CCN(C)C)n(C)c2=O)cc(OC)c1OC.Cl | 11.1 |
| O=C(Nc1ccc(F)cc1F)NC1CCN(Cc2c(F)cccc2Cl)CC1 | 8.67 |
| Oc1ccc(-c2[nH]ncc2-c2cnn(-c3ccccc3)c2)c(O)c1 | 7.88 |

| SMILES | hERG current change (%, negative = inhibition) at 1uM [%] |
| --- | --- |
| CCOc1cc(/C=N/NC(=O)c2ccncc2)ccc1OC(=O)c1ccco1 | -9.82 |
| O=C(Cc1ccccc1)NN1CCCCC1 | 10.5 |
| c1ccc(-c2cc(-c3nnc4n3N=C(c3ccc5ccccc5c3)CS4)[nH]n2)cc1 | 3.95 |
| O=C(OCCN=C1NS(=O)(=O)c2ccccc21)C1CC(=O)N(c2ccc3ccccc3c2)C1 (stereo not shown) | 0.0653 |
| S=c1[nH]nc(COc2ccc(Cl)cc2)n1-c1ccc(Cl)cc1 | 15.8 |
| CC1CCC(N2CCN(C(=O)COc3ccccc3)CC2)CC1.O=C(O)C(=O)O (stereo not shown) | -2.59 |
| Cc1ccc(S(=O)(=O)CCSc2nc(C)cc(C)c2C#N)cc1 | 17.8 |
| CCN(C(=O)CSc1nc2cc(S(=O)(=O)N(CC)CC)ccc2o1)C1CCS(=O)(=O)C1 (stereo not shown) | 5.23 |
| Cc1cc(C)n2nc(C(=O)Nc3ccc4c(c3)OCO4)nc2n1 | 7.79 |
| CC(=O)c1sc(NC(=O)C2CCN(c3ncnc4sc(C)c(C)c34)CC2)nc1-c1ccccc1 | 8.76 |
| Cc1ccc(/C=C2\SC(=S)N(CCCC(=O)Nc3ccccc3C(=O)O)C2=O)cc1 | -5.37 |
| FC(F)(F)c1nnc2ccc(NCc3cccnc3)nn12 | 13.2 |
| CC1(C)N=C(N)N=C(N)N1c1ccccc1.Cl | 21.2 |
| C=CCC(C(=O)c1ccccc1)[N+](C)(C)CC=C.[Br-] (stereo not shown) | 4.96 |
| O=C(NCC1CCCO1)C(c1ccc(F)cc1)N(CCCN1CCOCC1)C(=O)c1ccc(-c2ccccc2)[nH]1 (stereo not shown) | -2.25 |
| CCOC(=O)c1sc(NC(=O)C2CC(=O)N(c3ccc4c(c3)OCCO4)C2)nc1C (stereo not shown) | 6.82 |
| CC(=O)Nc1ccc(S(=O)(=O)NCc2cc(=O)n(C)c(=O)n2C)cc1 | 12 |
| Cc1cccc(NC(=O)c2ccc(NCC3CCCO3)c([N+](=O)[O-])c2)n1 (stereo not shown) | 17.5 |
| CCOC(=O)Cc1n[nH]c(=O)c2ccccc12 | 10.9 |
| CCOC(=O)N1CCC(NC(=O)C2CCCN(C(=O)c3cc4sccc4n3C)C2)CC1 (stereo not shown) | 1.81 |
| COC(=O)C1=C(c2ccccc2)C[C@@H]2CC[C@H]1N2C(=O)N1CCOCC1 | 1.67 |
| Cn1c(=O)[nH]c(=O)c2c1nc(CN1CCOCC1)n2CCCc1ccccc1 | 0.33 |

| SMILES | hERG current change (%, negative = inhibition) at 1uM [%] |
| --- | --- |
| Cc1ccc(NC(=O)CN2CCc3ccccc3C2)cc1 | -13.5 |
| CN1CCN(c2nc(-c3cccc([N+](=O)[O-])c3)nc3ccccc23)CC1 | 8.65 |
| COc1cccc(/C=N/Nc2nnc(C)n2N)c1O.Cl | 10 |
| CCOc1ccc(OCC)c(NC(=O)C2CCN(c3nn4c(=O)cc(C)nc4s3)CC2)c1 | 1.92 |
| CCOc1ccc(NC(=O)Nc2cc(C(C)C)c(O)cc2C)cc1 | 7.04 |
| Cc1nnc(NC(=O)c2cc(S(=O)(=O)N(C)C)ccc2N2CCCC2)s1 | 14.6 |
| C/C(=N\NC(=O)c1cccc(S(=O)(=O)Nc2ccccc2Cl)c1)c1ccc(-n2ccnc2)cc1 | 6.75 |
| Cc1ccc(NC(=S)NC(=O)C2CCC2)cc1C | 3.37 |
| Cc1c(CCOC(=O)C23CC4CC(CC(C)(C4)C2)C3)sc[n+]1CC(=O)c1ccccc1.[Br-] | 2.92 |
| O=C(Nc1cnn(Cc2ccccc2)c1)c1nc2ncccn2n1 | 2.52 |
| COc1ccc(S(=O)(=O)Nc2ccc(S(=O)(=O)N3CCCCC3)cc2)cc1C | 3.1 |
| CCc1c(C)nc(N2CCN(c3ccccc3F)CC2)[nH]c1=O | 13.6 |
| Cc1ccc(Nc2c(-c3ccccn3)nc3cc(C)ccn23)cc1 | -4.1 |
| CCOC(=O)Cc1csc(NC(=O)COc2ccccc2OC)n1 | 1.79 |
| CC1(C)CC(=O)C2=C(C1)Nc1ccccc1[S@]2=O | 8.31 |
| O=C(NC(=S)Nc1ccc(Cc2ccncc2)cc1)c1ccccc1 | 6.43 |
| O=C(C1CCC(=O)N1Cc1cccs1)N1CCOCC1 (stereo not shown) | 9.17 |
| CCOC(=O)C1CCCN(C(=O)c2cn(CC(C)C)c(=O)c3cc(OC)c(OC)cc23)C1 (stereo not shown) | 7.33 |
| Cc1cccc(Cn2c(=O)c3c(nc4n3CCCN4Cc3ccccc3)n(C)c2=O)c1 | 11.6 |
